# Values joined by “and” are separate entries in the source; they are usually repeats but may differ in a detail not shown here. Identical values can stand only once. Like-named read-outs stand apart in the source and are kept apart here.
# Columns and labels:
# [1] = system: breast tissue from a female rat on an iodine deficient diet; assay: Iodine replacement therapy in iodine deficient rats, morphology of breast tissue; type: in vivo
# Text: Studies on rats have included iodine replacement therapy in animals made iodine deficient by a Remington iodine-free diet.
# The first iodine product used in the reversal experiment was sodium iodide.
# FIG. 1 is a photomicrograph of the breast tissue of a human.
# Biological Trace Element Research, Volume 5, 1983, 399-412. The material disclosed in these articles is incorporated herein by reference.
# This deficiency can be obtained either through the use of an iodine deficient diet and/or through perchlorate treatment.
# fibrocystic disease [2] = assay: Recurrence of symptoms after dose reduction or stopping of iodine replacement therapy; type: in vivo, human; conditions: 10 cases reduced to a twice-weekly dose
# Text: Further, the half life of I2 in the human appears to be eight hours and therefore a daily dose is necessary.
# fibrocystic disease [3] = assay: Complications and side effects of iodine replacement therapy; type: in vivo, human (women); conditions: during treatment cycle
# Text: These include acne, nausea, diarrhea, hair thinning, hyper- and hypothyroidism, skin rash and iodism. […] This pain occurred three to six weeks into the treatment regime and lasted from one to three weeks. The manifestation of pain seemed to coincide with a decrease in breast size and a sudden softening of the fibrosis.
# [4] = system: breast neoplasia in severely iodine deficient Sprague-Dawley rats; assay: Example 3: Spontaneous breast cancers in rats; type: in vivo; conditions: 0.5 mg per 100 gm body weight, orally; iodine deficient diet and perchlorate
# Text: Since several different iodide modalities were used for evaluation without success, a preliminary study using iodine (diatomic, elemental) was begun by the inventors. This study employed Sprague-Dawley rats under severely iodine deficient conditions. The latter was obtained by using both dietary and perchlorate treatment together. While most of the histopathology obtained in the control rat group was noted to have only severe breast dysplasia, approximately 9% had evidence of neoplasia with cytological aberrations consistent with malignant alterations.
# mammary gland neoplasia = assay: Example 5: Prophylactic treatment in rats on low iodine diet/perchlorate; type: in vivo, rat; conditions: simultaneous therapy, as in Example 3
# Text: Evidence for the diatomic iodine replacement thesis was obtained in a prophylactic treatment regime where simultaneous therapy with diatomic iodine as described in Example 3 above, was given to a limited number of prepared rats.
# premenstrual syndrome = assay: Example 7: Treatment of premenstrual syndrome with iodine; type: in vivo, human (women)
# Protocol: Diatomic iodine has been used for the treatment of fibrocystic disease (see Example 1, above). […] These women varied in age from 30 years to 45 years, with an average of 38 years. The dose of elemental iodine employed was from about 0.07 mg. to about 0.09 mg. per kilogram body weight per day.
# In a retrospective review, the presence of their synarome was confirmed by their family doctor, and all reported failure of control of the premenstrual syndrome with various medications. All these patients met the research diagnostic criteria for premenstrual syndrome as defined by Steiner, Haskett and Carroll. Five were classified as moderate, and five as severe.
# ovarian cysts = assay: Example 8: Treatment of ovarian cysts with iodine (patient Number 647); type: in vivo, human
# Text: One patient, Number 647, exemplified four of the possible effective uses of elemental iodine, i.e., for the treatment of fibrocystic breast disease, premenstrual syndrome, endometriosis, and ovarian cysts. In each situation, as previously described, the elemental iodine is acting as an anti-estrogen to normalize the ovarian metabolism and estrogen response.
# A synopsis of the case follows. […] After menarche, the patient had recurrent episodes of right and left lower quadrant abdominal pain. […] They restarted the iodine and within 10 days the abdominal pain had subsided. […] Approximately six months later, this patient was also diagnosed with endometriosis (presence of chocolate cysts) during a laparoscopy examination.
# After a period of no abdominal pain, the patient stopped taking the elemental iodine for a period of approximately 2 years. They then returned to the private clinic, again having abdominal pain, and in addition, breast pain. They were at that time diagnosed as having fibrocystic disease in the upper half of each breast. The elemental iodine was again prescribed for their fibrocystic disease, and to continue to control their endonetriosis disease, which was diagnosed on their initial laparoscopy exam.
# The patient continued on the elemental iodine, but was given an oral contraceptive as well.
# The patient at all times was treated with 10 ml of an aqueous solution elemental iodine, twice daily, corresponding to a dose of approximately 6 milligrams per day.
# [5] = Side effects of iodine solution or suspension in patients; type: in vivo, human; conditions: pure elemental iodine solution without particulate iodine
# Text: Elemental iodine in a suspension form (i.e. containing micro and macro particles of iodine) has been used to treat thyroid conditions as taught by Polley in U.S. Pat. No. 4,384,960. However, such a suspension is an undesirable form of iodine. The iodine particles cause the suspension to be of unknown strength. […] The iodine particles are present in the Polley suspension due to the method of manufacture which comprises direct exposure of iodine pellets, crystals or dust to water through a porous container.
# Both of these advantages are attributable to the lack of particulate iodine in the solution.
# fibrocystic disease [6] = system: fibrocystic disease
# fibrocystic dysplasia = assay: Clinical testing of aqueous (elemental) iodine in fibrocystic dysplasia, 142 women
# [7] = approximately 2 years after re-treatment
structure (smiles),measurement,setting,value
"II [elemental iodine, diatomic iodine]",reversal of pathological changes / tissue morphology of rat breast after iodine replacement,[1],"reversal of tissue morphology to near normal with the return of normal adipose tissue components, subsidence of the epithelial hyperplasia and cyst spaces, and most notably, subsidence of the fibrosis"
same,reversal of pathological changes / tissue morphology of rat breast after iodine replacement,[1]; listed as aqueous iodine,"complete reversal of the fibrocystic dysplasia, including the control of fibrosis and thus a return to normal"
same,reversal of pathological changes / tissue morphology of rat breast after iodine replacement,[1]; listed as aqueous or diatomic iodine,the histopathology in the breast becomes normal
same,reversal of pathological changes / tissue morphology of rat breast after iodine replacement,[1]; listed as iodine,reversed breast dysplasia
same,recurrence of symptoms,fibrocystic disease [2],within two weeks had a recurrence of symptoms
same,increase of pain,fibrocystic disease [3]; de novo group,18.5%
same,increase of pain,fibrocystic disease [3]; transfer group,1.3%
same,neoplastic changes,[4],no evidence of persisting neoplastic changes in any of the rats
same,neoplasia in mammary glands,mammary gland neoplasia,no neoplasia secondary to this low iodine diet/perchlorate treatment
same,follow up of premenstrual syndrome,premenstrual syndrome; subsequent follow up,continuation of control of the syndrome
same,return of symptoms after stopping,premenstrual syndrome; three patients stopped medication,within one menstrual cycle had a return of symptoms
same,abdominal pain,"ovarian cysts; approximately 6 mg per day, approximately 3 months",free of abdominal pain
same,abdomen status,ovarian cysts; [7],asymptomatic in regard to their abdomen
same,breast status,ovarian cysts; [7],their breasts were asymptomatic and normal on examination
same,ovaries on ultrasound,ovarian cysts; approximately 6 months after re-treatment,showed the ovaries to be normal
same,cyst on left ovary (ultrasound),ovarian cysts; approximately 10 months after initial treatment,the cyst on their left ovary had disappeared
same,abdominal pain after restarting,ovarian cysts; restarted,within 10 days the abdominal pain had subsided
same,abdominal pain after stopping,ovarian cysts; stopped for 1 week,"on the eighth day, their abdominal pain returned, severe enough to incapacitate them"
same,recurrence of abdominal pain on stopping iodine,ovarian cysts; with an oral contraceptive,recurrent abdominal pain within three months
same,abdominal pain,"ovarian cysts; with an oral contraceptive, 1 year later",free of abdominal pain
same,side effects,[5],"reduces the unwanted side effects of nausea, vomiting and diarrhea"
same,patients with reduction in breast size,fibrocystic disease [6]; de novo group,76 % of patients
same,complete subjective relief of breast pain and clinical return to normal,"fibrocystic disease [6]; de novo group, 3-6 mg daily, fourth month",72 % of patients
same,retaining a small residual plaque of fibrosis,"fibrocystic disease [6]; de novo group, fourth month",26 % of patients
same,most effective dose to control all symptoms of fibrocystic disease,fibrocystic disease [6]; elemental iodine in aqueous solution,3-6 milligrams per day
same,reduction in breast size,fibrocystic disease [6]; transfer group,as significant as the de novo group
same,loss of residual breast discomfort and complete resolution of fibrosis; return to complete normalcy (class 1),"fibrocystic disease [6]; transfer group, after transfer to elemental iodine, four months evaluation",74 % of patients and 73.7 % of patients
same,patients at the 16-month evaluation (complete normalcy),"fibrocystic disease [6]; transfer group, 16-month evaluation",over 90 % of patients
same,"patients with control of pain, cysts and fibrosis, decrease in breast size","fibrocystic dysplasia; de novo patients, 4 to 16 months",90 % of patients
same,"patients with dramatic reduction in breast size, fibrosis and pain",fibrocystic dysplasia; oral aqueous iodine,90 % of patients
